{"source": "paper PMC7176370", "binders": {"B1": {"name": "Hsh155 wild type fused to the GAL4 activation domain (protein, UniProt P49955 1-971)", "chain": "MSHPIQFVNANNSDKSHQLGGQYSIPQDLRENLQKEAARIGENEKDVLQEKMETRTVQNREDSYHKRRFDMKFEPDSDTQTVTSSENTQDAVVPRKRKSRWDVKGYEPPDESSTAVKENSDSALVNVEGIHDLMFFKPSDHKYFADVISKKPIDELNKDEKKERTLSMLLLKIKNGNTASRRTSMRILTDKAVTFGPEMIFNRLLPILLDRSLEDQERHLMIKTIDRVLYQLGDLTKPYVHKILVVAAPLLIDEDPMVRSTGQEIITNLSTVAGLKTILTVMRPDIENEDEYVRNVTSRAAAVVAKALGVNQLLPFINAACHSRKSWKARHTGIKIVQQIGILLGIGVLNHLTGLMSCIKDCLMDDHVPVRIVTAHTLSTLAENSYPYGIEVFNVVLEPLWKGIRSHRGKVLSSFLKAVGSMIPLMDPEYAGYYTTEAMRIIRREFDSPDDEMKKTILLVLQKCSAVESITPKFLREEIAPEFFQKFWVRRVALDRPLNKVVTYTTVTLAKKLGCSYTIDKLLTPLRDEAEPFRTMAVHAVTRTVNLLGTADLDERLETRLIDALLIAFQEQTNSDSIIFKGFGAVTVSLDIRMKPFLAPIVSTILNHLKHKTPLVRQHAADLCAILIPVIKNCHEFEMLNKLNIILYESLGEVYPEVLGSIINAMYCITSVMDLDKLQPPINQILPTLTPILRNKHRKVEVNTIKFVGLIGKLAPTYAPPKEWMRICFELLELLKSTNKEIRRSANATFGFIAEAIGPHDVLVALLNNLKVQERQLRVCTAVAIGIVAKVCGPYNVLPVIMNEYTTPETNVQNGVLKAMSFMFEYIGNMSKDYIYFITPLLEDALTDRDLVHRQTASNVITHLALNCSGTGHEDAFIHLMNLLIPNIFETSPHAIMRILEGLEALSQALGPGLFMNYIWAGLFHPAKNVRKAFWRVYNNMYVMYQDAMVPFYPVTPDNNEEYIEELDLVL"}, "B2": {"name": "Hsh155^D563G fused to the GAL4 activation domain (protein, UniProt P49955 1-971)", "chain": "B1 chain with D563G"}, "B3": {"name": "Hsh155^E571K fused to the GAL4 activation domain (protein, UniProt P49955 1-971)", "chain": "B1 chain with E571K"}, "B4": {"name": "Hsh155^V502F fused to the GAL4 activation domain (protein, UniProt P49955 1-971)", "chain": "B1 chain with V502F"}}, "note": "Residue numbers refer to the chain shown, from its start. Numbers in names are those of the source. Results are given in words; binding and its absence hold for the method and conditions named. Some binding calls cover weakened binding; strength is not graded here. Sequences can lack the tags named with a protein."}
{"molecular_target": "T1, Prp3 fused to the GAL4 DNA-binding domain (S. cerevisiae) (UniProt Q03338)", "T1 sequence": "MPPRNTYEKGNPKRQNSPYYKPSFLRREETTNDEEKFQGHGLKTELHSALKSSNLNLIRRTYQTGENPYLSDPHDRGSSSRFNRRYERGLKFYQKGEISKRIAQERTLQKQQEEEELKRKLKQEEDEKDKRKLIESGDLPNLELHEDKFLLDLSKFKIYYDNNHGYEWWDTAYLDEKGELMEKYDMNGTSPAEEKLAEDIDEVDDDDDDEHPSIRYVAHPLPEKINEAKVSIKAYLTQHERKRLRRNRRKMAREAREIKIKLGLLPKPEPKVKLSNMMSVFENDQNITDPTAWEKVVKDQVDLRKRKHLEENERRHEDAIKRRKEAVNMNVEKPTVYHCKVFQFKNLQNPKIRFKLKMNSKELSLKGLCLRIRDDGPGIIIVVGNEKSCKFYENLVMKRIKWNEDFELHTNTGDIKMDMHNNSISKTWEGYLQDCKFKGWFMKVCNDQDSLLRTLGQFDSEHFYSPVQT", "experiment": "two-hybrid; Hsh155 fused to the GAL4 activation domain, Prp5 or Prp3 fused to the GAL4 DNA-binding domain (pGBKT7); strain Y2H GOLD; growth on media lacking histidine, leucine and tryptophan, 30°C, three days"}
{"binder": "B1", "binding": "binds"}
{"binder": "B2", "binding": "binds"}
{"binder": "B3", "binding": "binds"}
{"binder": "B4", "binding": "no binding"}
{"molecular_target": "T2, Prp5 fused to the GAL4 DNA-binding domain (S. cerevisiae) (UniProt P21372)", "T2 sequence": "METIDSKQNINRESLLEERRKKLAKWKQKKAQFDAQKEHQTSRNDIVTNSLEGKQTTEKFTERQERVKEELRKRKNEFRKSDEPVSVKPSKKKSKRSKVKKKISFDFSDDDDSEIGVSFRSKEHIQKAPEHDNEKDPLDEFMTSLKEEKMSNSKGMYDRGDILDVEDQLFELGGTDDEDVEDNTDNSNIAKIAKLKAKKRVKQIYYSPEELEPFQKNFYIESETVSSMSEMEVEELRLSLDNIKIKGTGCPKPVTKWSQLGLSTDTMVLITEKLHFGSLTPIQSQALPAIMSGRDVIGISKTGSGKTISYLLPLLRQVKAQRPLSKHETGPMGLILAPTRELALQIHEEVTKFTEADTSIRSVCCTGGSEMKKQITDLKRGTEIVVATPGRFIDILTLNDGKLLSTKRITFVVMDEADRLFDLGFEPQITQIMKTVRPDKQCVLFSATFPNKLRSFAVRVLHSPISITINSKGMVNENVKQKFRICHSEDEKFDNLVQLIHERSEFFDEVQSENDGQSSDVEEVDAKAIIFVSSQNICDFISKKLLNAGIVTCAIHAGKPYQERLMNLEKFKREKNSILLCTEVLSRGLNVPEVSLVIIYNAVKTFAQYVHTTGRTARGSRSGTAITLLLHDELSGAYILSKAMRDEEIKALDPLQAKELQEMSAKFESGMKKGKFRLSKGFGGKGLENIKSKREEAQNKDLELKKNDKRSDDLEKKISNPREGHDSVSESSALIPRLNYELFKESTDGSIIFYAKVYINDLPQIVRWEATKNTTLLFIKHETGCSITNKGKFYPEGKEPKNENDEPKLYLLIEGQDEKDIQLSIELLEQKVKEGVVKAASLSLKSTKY", "experiment": "two-hybrid; Hsh155 fused to the GAL4 activation domain, Prp5 or Prp3 fused to the GAL4 DNA-binding domain (pGBKT7); strain Y2H GOLD; growth on media lacking histidine, leucine and tryptophan, 30°C, three days"}
{"binder": "B1", "binding": "binds"}
{"binder": "B2", "binding": "binds"}
{"binder": "B3", "binding": "binds"}
{"binder": "B4", "binding": "no binding"}
